The whole screen tested about 310,000 compounds, of which about 14,000 (4.5%) showed an effect of 50% or more. The effect is printed as a negative number. Some of the results follow.
Target: human ether-à-go-go-related gene (hERG) potassium channel (human, UniProt Q12809)
Experiment: primary screen, population patch clamp on CHO cells stably expressing hERG
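Further: peak tail current of the secondary pulse compared with the same well before compound.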

Chain of human ether-à-go-go-related gene (hERG) potassium channel (Q12809 whole entry, looked up): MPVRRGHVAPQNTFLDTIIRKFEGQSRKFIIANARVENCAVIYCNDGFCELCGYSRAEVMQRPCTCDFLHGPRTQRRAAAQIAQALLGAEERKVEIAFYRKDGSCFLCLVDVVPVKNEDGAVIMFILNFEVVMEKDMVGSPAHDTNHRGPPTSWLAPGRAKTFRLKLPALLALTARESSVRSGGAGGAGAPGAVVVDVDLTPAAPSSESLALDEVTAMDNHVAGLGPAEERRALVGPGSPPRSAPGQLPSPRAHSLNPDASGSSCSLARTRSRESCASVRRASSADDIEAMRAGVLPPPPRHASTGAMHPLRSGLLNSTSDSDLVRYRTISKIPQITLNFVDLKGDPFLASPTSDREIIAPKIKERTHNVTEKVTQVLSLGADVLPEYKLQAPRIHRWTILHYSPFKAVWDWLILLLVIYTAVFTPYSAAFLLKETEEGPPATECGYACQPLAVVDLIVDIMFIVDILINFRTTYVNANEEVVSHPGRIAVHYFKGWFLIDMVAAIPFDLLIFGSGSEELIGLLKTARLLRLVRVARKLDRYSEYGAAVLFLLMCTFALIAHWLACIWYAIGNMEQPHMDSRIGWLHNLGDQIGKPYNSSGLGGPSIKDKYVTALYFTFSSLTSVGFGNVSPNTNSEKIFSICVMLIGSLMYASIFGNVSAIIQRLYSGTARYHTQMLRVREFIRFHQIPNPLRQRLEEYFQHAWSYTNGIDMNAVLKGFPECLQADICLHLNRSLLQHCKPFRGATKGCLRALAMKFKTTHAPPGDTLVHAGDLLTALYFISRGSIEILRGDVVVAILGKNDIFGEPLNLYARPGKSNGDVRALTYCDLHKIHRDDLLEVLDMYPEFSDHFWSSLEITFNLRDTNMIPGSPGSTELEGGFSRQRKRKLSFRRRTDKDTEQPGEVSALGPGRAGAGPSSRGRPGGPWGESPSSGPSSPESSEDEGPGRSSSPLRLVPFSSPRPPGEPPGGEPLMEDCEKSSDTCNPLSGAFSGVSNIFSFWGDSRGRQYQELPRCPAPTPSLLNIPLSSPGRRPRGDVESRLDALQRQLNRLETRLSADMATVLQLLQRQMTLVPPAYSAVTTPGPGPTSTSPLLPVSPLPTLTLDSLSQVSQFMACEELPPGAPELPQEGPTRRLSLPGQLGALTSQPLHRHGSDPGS

Row | Structure (SMILES) | hERG current change (%, negative = inhibition) at 10uM
1 | O=C(OCCN=C1NS(=O)(=O)c2ccccc21)c1cccnc1 | 10.8%
2 | COc1cc(C2Nc3ccccc3NC3=C2C(=O)CC(C)(C)C3)cc(OC)c1OC (centres unmarked) | 10.6%
3 | CCOc1ccc(NC(=S)Nc2ccc(OC(F)(F)F)cc2)cc1 | 11.3%
4 | O=C1NC(=O)C(=Cc2cn(CCOc3ccc4c(c3)OCO4)c3ccccc23)C(=O)N1 | 14.9%
5 | N#Cc1nc(-c2ccc(F)cc2)oc1NCc1ccco1 | 4.98%
6 | CCOC(=O)N1CCN(S(=O)(=O)c2ccc(C)c(C)c2)CC1 | -5.18%
7 | O=C(NCCCCNC(=O)c1ccc(F)cc1)c1ccc(F)cc1 | 13.3%
8 | Cc1ccc(S(=O)(=O)c2cc3c(=O)n4cccc(C)c4nc3n(C3CCCCC3)c2=N)cc1 | 15.7%
9 | CCn1c(=O)c2c3c(sc2n(C)c1=O)CCC3 | 1.36%
10 | CC(OC(=O)c1cccc(-n2cnnn2)c1)c1nc2ccccc2c(=O)[nH]1 (centres unmarked) | -35.4%
11 | Cc1ccnc(SCc2cc(=O)c(OC(=O)c3ccc(Br)o3)co2)n1 | -12.6%
12 | CC1CCc2sc3c(c2C1)c(=O)n(CC(=O)O)c(=O)n3Cc1ccc(Cl)cc1 (centres unmarked) | 8.22%
13 | COc1c(C)cc(C(=O)C2CCCN(Cc3ccccn3)C2)cc1C (centres unmarked) | -16.5%
14 | O=S(=O)(c1ccc(NC(=S)NN=C(C2CC2)C2CC2)cc1)N1CCOCC1 | 13.8%
15 | CSCC(NS(=O)(=O)c1ccc(C)cc1)C(=O)O (centres unmarked) | 8.98%
16 | CCSc1nnc2c(Cl)cc(Cl)cn12 | 5.28%
17 | CCC(C)OC1OC(CO)C(O)C(O)C1NC(C)=O (centres unmarked) | 16%
18 | COc1cc2c(cc1OC)CN(C(=O)c1ccncc1)CC2 | 12.4%
19 | CCCCn1c(N)c(N(Cc2ccccc2OC)C(=O)CCSC)c(=O)[nH]c1=O | -6.99%
20 | Cc1ccc(SCCC(=O)Nc2ccccc2C(=O)NC(C)C)cc1 | -14.7%
21 | CCc1nnc(NC(=O)CSc2ncnc3c2cnn3-c2ccc(OC)cc2)s1 | 11.7%
22 | CCn1c(O)c(N=NC(=O)CNC(=O)/C=C/c2ccco2)c2ccccc21 | 0.357%
23 | COc1cc(CNc2ccc3[nH]c(=O)[nH]c3c2)ccc1OCc1c(F)cccc1Cl | 14.5%

Row | Structure (SMILES) | hERG current change (%, negative = inhibition) at 10uM
24 | O=C(Nc1ccc(N2CCCC2)cc1)C(Cl)c1ccccc1 (centres unmarked) | -6.48%
25 | CN=C1S/C(=C\c2ccc(N3CCOCC3)cc2C)C(=O)N1C | 31.8%
26 | O=C(O)c1ccc(-c2sc(Nc3ccccc3)n[n+]2-c2ccc(F)cc2)cc1.[Cl-] | 2.83%
27 | CC(C)(C)NC(=O)c1ccccc1NC(=O)c1ccc2c(c1)OCO2 | 4.8%
28 | C=CCn1c(SCC(=O)NCc2ccccc2)nnc1-c1cc(Br)ccc1O | -30.4%
29 | Cn1c(=O)c2c(ncn2CC(=O)N2CCN(S(=O)(=O)c3ccccc3)CC2)n(C)c1=O | 0.716%
30 | Cc1ccc(CNC(=O)CCCc2ccccc2)cc1 | -21.3%
31 | COc1cc(Br)c(CCNC(=O)Cc2ccccc2)cc1OC | -18.4%
32 | COC(=O)c1cccc(NC(=O)c2cccnc2)c1.Cl | -19.7%
33 | O=C(Cc1n[nH]c(=O)c2ccccc12)NCc1ccccc1 | 3.17%
34 | CCOC(=O)/C(C#N)=C/c1cc(C)n(-c2ccc(Br)cc2)c1C | 9.5%
35 | CC(=O)c1cc2c(cc1NC(=O)CSc1nc3ccc(C)cc3[nH]1)OCO2 | -21%
36 | NC(=O)CC(NC(=O)c1cccc(Br)c1)c1ccc(N2CCN(c3ccc(F)cc3)CC2)c([N+](=O)[O-])c1 (centres unmarked) | -2.08%
37 | O=C(NCCN1CCOCC1)Nc1ccccc1 | -6.63%
38 | CC1CC(=O)c2c(cc3c(-c4c(O)cc(O)c5c(O)c6c(cc45)OC(C)CC6=O)c(O)cc(O)c3c2O)O1 (centres unmarked) | -11.5%
39 | CC(SC1=NCCN1S(C)(=O)=O)c1ccccc1 (centres unmarked) | 11.3%
40 | Cc1cc(=O)[nH]c(SCC(=O)Nc2nc(-c3ccccc3)c(-c3ccccc3)o2)n1 | 3.76%
41 | CCn1c(SCC(N)=O)nc2sc3c(c2c1=O)CCN(C)C3 | 16.2%
42 | O=C(COc1ccc2ccccc2c1)NCCc1ccc2c(c1)OCCO2 | -17.1%
43 | COc1ccc(-n2c(=O)cc(N3CCN(c4ccccc4)CC3)[nH]c2=O)cc1 | 20%
44 | COc1cccc(-c2cc(C(=O)NC3CCCC3)no2)c1 | -6.34%
45 | CNC(=O)C(NC(=O)c1ccccc1)=C(C)C | -8.15%
46 | COc1ccc(N(CC(=O)N2CCN(Cc3ccccc3)CC2)S(C)(=O)=O)c(OC)c1 | 3.99%

Row | Structure (SMILES) | hERG current change (%, negative = inhibition) at 10uM
47 | O=C(CN1C(=O)c2ccccc2C1=O)N1CCCCC1 | -6.26%
48 | COc1ccc(-c2csc(N(CCCN(C)C)C(=O)c3ccccc3Cl)n2)cc1.Cl | -67.3%
49 | COc1ccc(NC(=O)CCN2CCN(c3ccc(F)cc3)CC2)cc1 | -33%
50 | O=C(NCc1cccc2[nH]ccc12)C1CCC(=O)N(CCc2ccccc2)C1 (centres unmarked) | 17.4%
51 | COc1cccc(NC(=O)COC(=O)c2c(C)noc2C)c1 | 6.67%
52 | C=C(C)C1CC=C(C)/C(=N/NC(=O)CCCNc2cccc(C)c2)C1 (centres unmarked) | 9.43%
53 | O=C(NCc1ccccc1)Nc1cccn(Cc2ccccc2Cl)c1=O | 18.8%
54 | O=C(Nc1cccc(C(F)(F)F)c1)C1CC(=O)N(CCc2ccccc2)C1 (centres unmarked) | -22.9%
55 | COCCCNC(=O)c1ccc(C2SCC(=O)N2Cc2ccco2)cc1 (centres unmarked) | 8.41%
56 | COc1ccc(-c2nc(C#N)c(N3CCC(C(N)=O)CC3)o2)cc1 | -15.6%
57 | Cc1ccccc1C(=O)NC(NC(=S)Nc1ccc(S(N)(=O)=O)cc1)C(Cl)(Cl)Cl (centres unmarked) | 19.3%
58 | Cc1c(C(=O)N2CCN(c3ccccc3)CC2)sc2ncnc(N3CCN(c4ccccn4)CC3)c12 | -35.1%
59 | Cc1cc(Br)cc(C)c1OCC(=O)NNC(=O)c1cccs1 | -9.81%
60 | COc1ccc2[nH]c(C(=O)N/N=C/c3cc(OC)c(OC)c(OC)c3)cc2c1 | 7.49%
61 | O=S(=O)(NCc1ccncc1)c1ccccc1 | 7.56%
62 | CN(c1ccc(C(=O)NCCSCc2c(F)cccc2Cl)cc1)S(C)(=O)=O | 1.6%
63 | O=S(=O)(Cc1ccccc1)N=Nc1c(O)[nH]c2ccc(Br)cc12 | 9.9%
64 | Cn1c(=S)[nH]c2[nH]c(=O)cnc2c1=O | -2.04%
65 | Cc1cc(S(=O)(=O)N2CCCCC2)ccc1OCC(=O)N1CCOCC1 | -2.34%
66 | CN(CC(=O)Nc1cccc2ccccc12)C(=O)c1cccc(S(=O)(=O)N(C)C)c1 | -7.71%
67 | CCOC(=O)C1CCN(C(=O)c2ccc3nc(-c4ccc(OC)cc4)c(-c4ccc(OC)cc4)nc3c2)CC1 | 3.82%
68 | CS(=O)(=O)c1ccc2nc(NC(=O)Oc3ccccc3)sc2c1 | 12.5%
69 | COc1cccc(CC(=O)OCC(=O)NC2CCCC2)c1 | 4.66%

Row | Structure (SMILES) | hERG current change (%, negative = inhibition) at 10uM
70 | COC(=O)Nc1nc2ccc(C(=O)c3ccc(F)cc3)cc2[nH]1 | 5.63%
71 | COc1ccc(CNC(=O)c2ccccc2SCC(=O)N2CCCC2)cc1OC | 7.71%
72 | CC(=O)c1ccc(NC(=O)CN(c2c(C)cccc2C)S(C)(=O)=O)cc1 | 15.5%
73 | CCOc1ccc(S(=O)(=O)N2c3ccccc3CC2C)cc1 (centres unmarked) | 6.81%
74 | Cc1ccc(OCC(=O)NCc2ccccn2)c(Br)c1 | -3.9%
75 | CCOC(=O)N1CCN(C(=O)COc2ccc3c(c2)C(=O)CC(C)(C)O3)CC1 | 17.6%
76 | Cc1cc(Br)ccc1SCC(=O)NNC(=O)c1ccco1 | -18.1%
77 | O=C(Nc1ccccc1)C1=C[C@@H](C2CC2)C[C@@H](OCc2ccc(CO)cc2)O1 | -20.9%
78 | CC(=O)N1C2CCCCC2S[C@H]2CCCCC21 (some centres unmarked) | 18.9%
79 | CSc1nc(N2CCN(c3ccccc3Cl)CC2)c2ccccc2n1 | 12.1%
80 | O=C(CN1CCOCC1)NCc1ccccc1 | 17.4%
81 | COc1cccc(-c2nc(CS(=O)CC(=O)NCc3ccccc3)c(C)o2)c1 (centres unmarked) | -6.07%
82 | CC(C)S(=O)(=O)CC(=O)c1ccc(Cl)cc1 | 15%
83 | COc1ccc(-c2cc(C(F)(F)F)nc(SCCC(=O)N3CCOCC3)n2)cc1 | -1.4%
84 | Nc1ccc(C(=O)NCCCSc2ccccc2)cc1[N+](=O)[O-] | 2.99%
85 | CCN1CCN(CC(O)COCc2ccccc2)CC1.Cl (centres unmarked) | 29%
86 | Cc1oc2c(O)c(O)ccc2c(=O)c1-c1cnn(-c2ccccc2)c1 | -20.7%
87 | CCc1nnc(NC=C2C(=O)OC(C)(C)OC2=O)s1 | 2.69%
88 | O=C(CCc1nc(-c2ccc(Cl)cc2)no1)NCc1ccccc1CN1CCOCC1 | -65.5%
89 | CCCCC[C@H]1CN(CCc2ccccc2)C(=O)[C@@H]1CC(=O)NCc1ccc(OC)cc1 | -61.8%

— article PMC4336329 (PLoS ONE, 2015)
